From the supplement of paper PMC3694890
± gives the uncertainty stated by the source. The list shows a part of the results. A small y stands for phosphotyrosine.

Target: GRB2 (endogenous complexes from cell lysate), P62993
Test: GRB2 complex binding differential signal (pY peptide minus Ala control peptide) (fluorescence intensity units); higher = stronger GRB2 complex binding
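Note: phosphopeptide probes on the chip at 1–4 µM, lysate proteins bound in 20 mM Tris pH 7.0 buffer with 140 mM NaCl, 1% Triton X-100 and 5% glycerol.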

| Binder | GRB2 complex binding differential signal (MCF7) | GRB2 complex binding differential signal (MCF10A) | GRB2 complex binding differential signal (MDA-MB-231) | GRB2 complex binding differential signal (T47D) |
| --- | --- | --- | --- | --- |
| yYTVKD [JAK1_1034/A1] | 5080 ± 2200 | 3490 ± 1200 | 1270 ± 490 | 3150 ± 1400 |
| yYRKGG [INSR_1189/A1] | 1300 ± 340 | 434 ± 210 | 273 ± 260 | 734 ± 2500 |
| yELLSD [JAK3_785/A1] | 249 ± 180 | 282 ± 190 | 763 ± 390 | 61.4 ± 810 |
| yIPETL [JAK1_220/A1] | -212 ± 460 | 666 ± 300 | 760 ± 330 | 597 ± 830 |
| yNPNYC [ALK_1092/A1] | 82.5 ± 650 | 225 ± 220 | 137 ± 330 | -261 ± 830 |
| yASGAS [KBTBD10_587/A1] | 1400 ± 480 | 2300 ± 960 | 482 ± 890 | 625 ± 1000 |
| yTSSTG [ITK_512/A1] | 1910 ± 300 | 3330 ± 750 | 817 ± 280 | 803 ± 1500 |
| yELLTE [JAK2_813/A1] | -72.9 ± 630 | 465 ± 230 | 1210 ± 360 | 715 ± 950 |
| yASVNP [IGF1R_973/A1] | 2400 ± 350 | 2630 ± 760 | 1030 ± 440 | 685 ± 2200 |
| yKLSKL [ALK_1078/A1] | 772 ± 470 | 615 ± 300 | 336 ± 310 | 944 ± 1000 |
| yFSAAD [IGF1R_980/A1] | 1300 ± 300 | 717 ± 300 | 679 ± 370 | 888 ± 1200 |
| yDPLQD [JAK2_868/A1] | -879 ± 880 | -33.7 ± 310 | 390 ± 270 | 170 ± 1200 |
| yLRTLP [INSRR_597/A1] | 1520 ± 330 | 1130 ± 380 | 1420 ± 490 | 1820 ± 1400 |
| yTVKDD [JAK1_1035/A1] | 1140 ± 200 | 775 ± 290 | 656 ± 420 | 564 ± 1100 |
| yVPDEW [INSR_1011/A1] | 190 ± 1000 | -49.2 ± 420 | 252 ± 350 | -483 ± 3000 |
| yTHMNG [INSR_1361/A1] | 1200 ± 270 | 984 ± 400 | 557 ± 360 | 1090 ± 1400 |
